In PubChem BioAssay AID588579 (National Center for Advancing Translational Sciences (NCATS), 2011):
Where “and” joins values, the source holds several entries; their conditions need not be identical. Equal entries are not always repeated. The whole screen tested about 400,000 compounds, of which about 2,200 (0.55%) were called active. The shares of active, inactive and inconclusive entries below differ from those in the screen. Calls come from the whole dose curve; as a rule, active = well fitted inhibition curve with a large enough effect; inconclusive = small, poorly fitted or top-dose-only effect, or another doubt; inactive = no such curve, though single readings can be large or run the other way. Where the call is inconclusive, the potency comes from a doubtful curve fit.

What follows are compounds tested against DNA polymerase kappa (Homo sapiens) (UniProt Q9UBT6) (assay: qHTS for Inhibitors of Polymerase Kappa). Details: purified Pol kappa, fluorescent DNA synthesis assay, 10 min; series mostly up to 107 µM.
Protocol: The processing and repair of DNA interstrand crosslinks (ICL) in eukaryotic cells are extremely complex, potentially involving multiple DNA repair and damage tolerance pathways, including homologous recombination, nucleotide excision repair, translesion synthesis (TLS), and cell cycle checkpoints.
To that end, in a collaboration between the Oregon Health & Science University and the NIH Chemical Genomics Center a 1536-well high-throughput screen was developed. This fluorescent screen was assayed against the NIH Molecular Libraries Small Molecule Repository (MLSMR) to discover inhibitors of Pol Kappa.
NIH Chemical Genomics Center [NCGC]
NIH Molecular Libraries Probe Centers Network [MLPCN]
Assay Submitter (PI): Stephen Lloyd, Oregon Health & Science University
Three microliters of reagents (buffer in column 3 and 4 as negative control and 10 nM Pol kappa in columns 1, 2, and 5-48) were dispensed into a 1536-well black solid-bottom plate. Compounds (23 nL) were transferred via Kalypsys pin tool equipped with 1536-pin array. The plates were then incubated for 15 min at room temperature, and 1 uL substrate (50 nM final concentration) were then added to start the reaction and kinetically read twice at 0 min and 10 min on the Viewlux reader
Potency is the fitted concentration of half-maximal effect; tags give direction and shape of the fitted curve.

UniProt Q9UBT6, sequence (Q9UBT6 whole entry, looked up): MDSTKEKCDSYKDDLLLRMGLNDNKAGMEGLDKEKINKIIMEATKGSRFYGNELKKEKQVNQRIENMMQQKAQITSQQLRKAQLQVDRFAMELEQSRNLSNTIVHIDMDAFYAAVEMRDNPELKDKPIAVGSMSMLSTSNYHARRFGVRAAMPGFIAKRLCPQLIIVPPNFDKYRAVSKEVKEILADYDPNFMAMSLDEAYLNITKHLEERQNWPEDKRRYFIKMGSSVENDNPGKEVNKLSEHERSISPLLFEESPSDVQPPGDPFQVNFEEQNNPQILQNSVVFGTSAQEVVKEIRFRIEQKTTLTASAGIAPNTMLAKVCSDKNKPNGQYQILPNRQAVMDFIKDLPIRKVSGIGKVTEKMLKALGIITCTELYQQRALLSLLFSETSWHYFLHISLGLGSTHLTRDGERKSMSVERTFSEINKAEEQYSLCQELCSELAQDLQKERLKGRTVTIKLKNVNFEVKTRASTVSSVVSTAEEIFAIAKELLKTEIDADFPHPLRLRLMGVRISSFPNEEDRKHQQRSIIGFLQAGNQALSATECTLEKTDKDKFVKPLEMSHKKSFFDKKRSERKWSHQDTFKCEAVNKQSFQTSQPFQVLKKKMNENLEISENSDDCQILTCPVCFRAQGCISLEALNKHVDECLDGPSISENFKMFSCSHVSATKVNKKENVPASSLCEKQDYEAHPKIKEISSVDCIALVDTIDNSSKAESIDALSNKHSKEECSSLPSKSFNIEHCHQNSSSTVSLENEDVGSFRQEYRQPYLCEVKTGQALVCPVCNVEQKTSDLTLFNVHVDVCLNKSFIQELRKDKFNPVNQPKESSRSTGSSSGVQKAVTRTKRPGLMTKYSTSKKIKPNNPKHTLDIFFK

Row | Structure (SMILES) | Potency
1 | O=C(c1coc(=O)c(Br)c1)N1CCCc2ccccc21 | active: 31.6 µM
2 | CCCCC(=O)OCC(=O)C1(O)Cc2c(O)c3c(c(O)c2C(OC2CC(NC(=O)C(F)(F)F)C(O)C(C)O2)C1)C(=O)c1c(OC)cccc1C3=O (stereo not given) | inconclusive: 4.47 µM [inhibitor, full curve]
3 | CC(C)(C)NC(=O)Nc1nnc(SCC(=O)NC2CCCCC2)s1 | inactive
4 | COc1ccc2[nH]c3c(=O)n(CCCCC(=O)NCCN4CCCC4)c(=S)[nH]c3c2c1 | inconclusive: 79.4 µM [inhibitor, partial curve, poor fit]
5 | CC(C)(C)Nc1c([N+](=O)[O-])c(=O)sc2ccccc12 | inconclusive: 100 µM [inhibitor, single point]
6 | O=C(NCC1CCCO1)c1ccc(NC(=O)c2cccc([N+](=O)[O-])c2)cc1 (stereo not given) | inconclusive: 89.1 µM [inhibitor, partial curve, poor fit]
7 | Cc1ccc(S(=O)(=O)NC(=O)c2ccc(-c3ccc(C)c4ccccc34)o2)cc1 | inconclusive: 100 µM [inhibitor, single point]
8 | Cc1oc(C(=O)O)cc1COc1ccc2c3c(c(=O)oc2c1)CCC3 | inconclusive: 89.1 µM [inhibitor, partial curve, poor fit]
9 | COc1ccccc1OCCn1c(C(C)Oc2ccccc2)nc2ccccc21 (stereo not given) | inconclusive: 100 µM [inhibitor, partial curve, poor fit]
10 | CN(C)c1ccc(C2=Cc3ccccc3C2)cc1 | inconclusive: 79.4 µM [inhibitor, partial curve, poor fit]
11 | O=C1NN(c2ccccc2)C(=O)/C1=C/c1ccc(-c2cccc(C(=O)O)c2)o1 | active: 44.7 µM
12 | CCCc1c(C)[nH]c2ccc(C(=O)O)cc2c1=S | active: 31.6 µM
13 | CCC(=O)N/C(N)=N/c1nc(C)c2cc(OC)ccc2n1 | inactive
14 | O=C(CSc1nnc(NC(=O)C2CC(=O)N(c3ccccc3)C2)s1)NCc1ccco1 (stereo not given) | inconclusive: 89.1 µM [inhibitor, single point]
15 | CCCCc1nc(NCCNC(=O)c2ccco2)c(C#N)c2c1CSC(C)(C)C2 | inconclusive: 100 µM [inhibitor, partial curve, poor fit]
16 | CCOC(=O)c1c(/N=C/c2cccc([N+](=O)[O-])c2O)sc2c1CCC2 | inconclusive: 100 µM [inhibitor, single point]
17 | Cc1ccccc1NC(=O)CN1C(=O)S/C(=C\c2cccn2-c2cccc(C(=O)O)c2)C1=O | active: 25.1 µM
18 | O=C(N/N=C/c1ccc(O)c(O)c1)c1ccc(CSc2cccc3cccnc23)cc1 | inconclusive: 79.4 µM [inhibitor, partial curve, poor fit]
19 | O=C(NCCc1ccco1)c1ccc(OCc2cn3ccccc3n2)cc1 | inconclusive: 89.1 µM [inhibitor, single point]
20 | CCOc1ccc(Nc2nc(Cc3nnc(SCC(=O)O)o3)cs2)cc1 | inconclusive: 89.1 µM [inhibitor, partial curve, poor fit]
21 | COc1ccc(-c2csc(NC(=O)c3ccccc3NS(=O)(=O)c3ccc(F)c(F)c3)n2)cc1 | inconclusive: 100 µM [inhibitor, partial curve, poor fit]
22 | CCC(=O)N1CCc2cc(S(=O)(=O)CCC(=O)N3CCN(c4ccccc4Cl)CC3)ccc21 | inconclusive: 89.1 µM [inhibitor, single point]

Row | Structure (SMILES) | Potency
23 | O=C(O)[C@@H]1[C@@H]2C[C@H]3c4[nH]c5ccccc5c4CCN3C[C@@H]2CC[C@@H]1O | inconclusive: 0.67 µM [inhibitor, full curve]
24 | CNc1ccc(C=C2C=CC=C2)cc1 | inconclusive: 56.2 µM [inhibitor, partial curve, poor fit]
25 | COC(=O)c1c(NC(=O)Cc2cccs2)sc2c1CCCC2 | inconclusive: 100 µM [inhibitor, single point]
26 | COc1ccccc1C(=O)N=Nc1c(O)[nH]c2ccc([N+](=O)[O-])cc12 | inconclusive: 89.1 µM [inhibitor, partial curve, poor fit]
27 | Cc1cc(N/N=C/c2ccc(O)cc2)nc(NS(=O)(=O)c2ccccc2)n1 | inconclusive: 89.1 µM [inhibitor, single point]
28 | CCCCCC(=O)Nc1ccc(S(=O)(=O)Nc2ccc(Cl)nn2)cc1 | inconclusive: 100 µM [inhibitor, single point]
29 | COc1cc(/C=C/C(=O)OCC(=O)Nc2ccc(Cl)cn2)ccc1O | inconclusive: 89.1 µM [inhibitor, partial curve, poor fit]
30 | NC(=O)/C(=C/c1ccco1)C(N)=S | inconclusive: 89.1 µM [inhibitor, single point]
31 | CC(=O)Oc1cc2c(cc1Cl)C(c1cccs1)CC1(CC(C)(C)NC(=S)N1)O2 (stereo not given) | inactive
32 | CC(=O)NCc1ccc(C(=O)COC(=O)COc2ccccc2)s1 | inconclusive: 89.1 µM [inhibitor, partial curve, poor fit]
33 | CN(C)c1ccc(C(=O)Nc2sc(Nc3ccccc3)nc2C(N)=O)cc1 | inactive
34 | CCCc1cc(=O)[nH]c(SCC(=O)Nc2sc3c(c2C#N)CCC(C)C3)n1 (stereo not given) | active: 79.4 µM
35 | O=C(CC1(O)C(=O)N(CCc2ccccc2)c2ccccc21)c1ccco1 (stereo not given) | inactive
36 | Cc1cccc(OCCn2c(SCC(N)=O)nc3ccccc32)c1 | inactive
37 | CCOC(=O)NC1(NCc2ccccc2)Oc2ccccc2O1 | inconclusive: 89.1 µM [inhibitor, single point]
38 | C/C(=N/NC(=O)c1cc2ccccc2cc1O)C1C(=O)c2ccccc2C1=O | inconclusive: 56.2 µM [inhibitor, partial curve, poor fit]
39 | Cc1cccc(-c2nc3cc(NC(=O)c4ccc(OCC(C)C)cc4)ccc3o2)c1 | inactive
40 | Cc1cccc(S(=O)(=O)c2cn(Cc3ccc(F)cc3)c3cc(N4CCCCC4)c(F)cc3c2=O)c1 | inactive
41 | CC(C)(C)C(C(=O)n1cccc1C#N)c1ccccc1 (stereo not given) | inactive
42 | O=C(Nc1cnn(Cc2ccc(F)cc2)c1)C(c1ccccc1)c1ccccc1 | inactive
43 | CCN(CC)C(=O)COC(=O)c1cc(-c2ccco2)nc2ccccc12 | active: 79.4 µM
44 | Cn1nc([N+](=O)[O-])nc1S(C)(=O)=O | inconclusive: 89.1 µM [inhibitor, single point]

Row | Structure (SMILES) | Potency
45 | O=C(CSC(=S)N1CCCCC1)c1c(F)cccc1F | inactive
46 | N#C/C(=C\c1ccc(O)c(O)c1)C(=O)c1ccc(O)c(O)c1 | active: 794 nM and active: 336 nM
47 | NC12CC3CC(CC(C3)C1)C2 | inconclusive: 0.0047 µM [inhibitor, full curve, poor fit]
48 | CCCCN(C)CC(O)Cn1cc(/C=C/C(=O)c2ccc(OC)c(OC)c2)c2ccccc21 (stereo not given) | inactive
49 | COc1ccc2ccccc2c1/C=N/Nc1ccc(Cl)c(C(=O)O)c1 | inconclusive: 89.1 µM [inhibitor, single point]
50 | CCOc1ccc(CNCc2c(C(=O)O)c(C)n(Cc3ccc(F)cc3Cl)c2C)cc1 | inconclusive: 100 µM [inhibitor, single point]
51 | O=C(O)c1cc(O)c2c(c1)[C@@H]([C@H]1c3cc(C(=O)O)cc(O)c3C(=O)c3c(O[C@@H]4O[C@H](CO)[C@@H](O)[C@H](O)[C@H]4O)cccc31)c1cccc(O[C@@H]3O[C@H](CO)[C@@H](O)[C@H](O)[C@H]3O)c1C2=O | active: 1.26 µM
52 | Nc1nonc1C(=O)N/N=C/c1cc2c(cc1[N+](=O)[O-])OCO2 | inconclusive: 89.1 µM [inhibitor, partial curve, poor fit]
53 | COc1ccc(/C=C/C(=O)c2cc(Br)ccc(=O)c2O)cc1 | active: 25.1 µM
54 | COc1cc(/C=C2/C(=O)NN(c3cccc(Cl)c3)C2=O)cc(Br)c1O | inconclusive: 79.4 µM [inhibitor, partial curve, poor fit]
55 | COc1ccc(NS(=O)(=O)c2ccc(NC(=O)c3ccc(Br)cc3)cc2)nn1 | inconclusive: 56.2 µM [inhibitor, partial curve, poor fit]
56 | c1ccc(OCCOCCN2CCOCC2)cc1 | inconclusive: 35.5 µM [inhibitor, single point]
57 | O=C(COC(=O)Cc1ccc(F)cc1)NCc1ccco1 | inconclusive: 89.1 µM [inhibitor, partial curve, poor fit]
58 | Cc1ccc(N2CCn3c2nc2c3c(=O)n(CCCc3ccccc3)c(=O)n2C)cc1 | inactive
59 | [O][C@H]1[C@@H](O)[C@@H](CO)O[C@@H](O[C@@H]2[C@@H]3OC[C@H]2O[C@H](O[C@@H]2[C@@H](O)[C@H](C[C@@H]4[C@@H]5OC[C@H]4O[CH][C@@H]5O)O[C@H](CO)[C@@H]2OS(=O)(=O)O)[C@@H]3OS(=O)(=O)O)[C@@H]1O | active: 31.6 µM
60 | COc1cccc(C(=O)Nc2cccc3c2ccc2cccn23)c1 | inconclusive: 89.1 µM [inhibitor, single point]
61 | CCN(c1ccc(OC)cc1)S(=O)(=O)c1nnc(NC(=O)COc2ccc(F)cc2)s1 | inconclusive: 100 µM [inhibitor, single point]
62 | COc1ccc2[nH]c(C(=O)N/N=C/c3cc(OC)c(OC)c(OC)c3)cc2c1 | active: 50.1 µM
63 | O=C1c2cccc(NCCCNCCO)c2C(=O)c2cccc(NCCCNCCO)c21 | active: 31.6 µM
64 | Cc1c(OCC(=O)NC(Cc2ccc(Cl)cc2)C(=O)O)ccc2c1oc(=O)c1ccccc12 (stereo not given) | inactive
65 | COc1ccc(/C=C/C(=O)CC(=O)/C=C/c2cccc(O)c2OC)cc1O | inconclusive: 29.9 µM [inhibitor, single point]
